Measured values: PubChem BioAssay AID652104 (National Center for Advancing Translational Sciences (NCATS), 2013)
In all, about 410,000 compounds went through this assay and about 7,200 (1.8%) were called active. The inconclusive results got no clear call from the source; some entries with a clear call stand among them for comparison. Calls follow the shape of the dose curve; as a rule, active = well fitted activation curve with a large enough effect; inconclusive = small, poorly fitted or top-dose-only effect, or another doubt; inactive = no such curve, though single readings can be large or run the other way. A potency beside an inconclusive call is a rough fit, not a confirmed value.

Assay: qHTS of TDP-43 Inhibitors; also: nearly all actives have a fitted effect of over 50% in size; as to growth rescue (activation): % of control where 0% means no effect
Details: TDP-43 expressing yeast growth rescue, BacTiter-Glo, 24 h; growth rescue (activation): at 46.1 µM (top of the series) unless noted
How it was run: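 Galactose-induced TDP-43 yeast, OD600=0.02, compound pinned; 24 hr, 30 deg C; BacTiter-Glo luminescence for growth. Inhibitors of TDP-43 toxicity read as activators.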
Potency is read from the fitted curve at half-maximal effect; tags tell the direction and shape of the fitted curve.

Potency, inconclusive:
CC(C)CCN1C(=O)c2cccc3c(N)ccc(c23)C1=O 25.1 µM [activator, single point]
Cc1ccc(-n2c(C)cc(/C=N/NC(N)=S)c2C)cc1 7.08 µM [activator, partial curve]
CCCCCc1cc(=O)c2ccccc2o1 6.31 µM [activator, full curve, poor fit]
CCc1cccc(NC2c3ccccc3C(=O)N2c2ccc(C)cn2)c1 (stereo not drawn) 17.8 µM [activator, single point]
CC(=O)Nc1ccc(NC(=O)C(NC(=O)c2ccc(Cl)cc2)C(C)C)cc1 (stereo not drawn) 0.501 µM [activator, partial curve, poor fit]
O=C(CSc1ccc(Br)cc1)N1CCN(S(=O)(=O)c2ccccc2)CC1 14.1 µM [activator, single point]
Cc1cc(C)c(S(=O)(=O)c2ccc(Cl)cc2)c(Cl)n1 3.16 µM [activator, single point]
CC(C)(C)NC(=O)C[C@H]1C[C@H](C(=O)N2CCOCC2)[C@@]2(C)c3[nH]c4cc(-c5ccco5)ccc4c3CCN2C1=O 6.31 µM [activator, single point]
Cc1cccc(-c2ocnc2C(=O)Nc2ccccc2NC(=O)c2ccccn2)c1 14.1 µM [activator, single point]
COc1ccc(S(=O)(=O)NC2CC3CCC2C3)cc1 (stereo not drawn) 11.2 µM [activator, single point]
O=C(Cc1ccccc1)Nc1ccc2c(c1)OC1(CCCC1)O2 35.5 µM [activator, partial curve, poor fit]
CCc1cccc(C)c1NC(=O)CSc1nnc(CC)n2c1cc1occc12 12.6 µM [activator, partial curve]
Cc1ccc(Cl)cc1NC(=O)CSC(N)=O 25.1 µM [activator, partial curve, poor fit]
CCCc1cc(C(=O)Nc2cccc([N+](=O)[O-])c2)cs1 11.2 µM [activator, partial curve]
CCCCCCSc1nsc(N)n1 11.2 µM [activator, partial curve]
COc1ccc(F)cc1S(=O)(=O)NCCc1sc2nc(-c3ccc(F)cc3)nn2c1C 35.5 µM [activator, partial curve, poor fit]
CCOC(=O)c1ccccc1NC(=O)N(C)CCc1c(C)nn(CC)c1C 11.2 µM [activator, partial curve]
Cc1c(C)c2ccc(OCC(=O)Nc3ccccc3C(N)=O)cc2oc1=O 3.98 µM [activator, single point]
Cc1cc([N+](=O)[O-])nn1CCCC(=O)Nc1cc(Cl)ccc1Cl 14.1 µM [activator, single point]
COc1ccc(OC)c(NC(=O)C2(C)CCN2Cc2ccc(SC)cc2)c1 (stereo not drawn) 0.355 µM [activator, full curve]
COc1cc(C(=S)N2CCOCC2)ccc1OC(=O)c1cccc(C)c1 14.1 µM [activator, single point]
Cc1cccc(OCCn2c(=O)sc3ccccc32)c1 3.55 µM [activator, partial curve]
CC12CC3CC(C)(C1)CC(C(=O)N1CCN(C(=O)c4ccco4)CC1)(C3)C2 12.6 µM [activator, partial curve]
CCCNc1ccc(C(=O)OCC)cc1[N+](=O)[O-] 22.4 µM [activator, single point]
CCCSCCCNC(=O)c1ccc2nc(Cc3ccccc3)oc2c1 14.1 µM [activator, partial curve]
COc1ccc(CCNC(=O)C2CCN(S(=O)(=O)c3ccc(OC)c(OC)c3)CC2)cc1OC 1.41 µM [activator, partial curve]
O=C(c1ccco1)N1CCN(S(=O)(=O)c2ccc(Br)cc2)CC1 25.1 µM [activator, partial curve]
COc1c(Cl)cc(-c2noc(C)c2C(=O)NC(C)C)cc1Cl 3.98 µM [activator, partial curve]
CCOC(=O)c1c(-c2ccccc2)oc2ccc(O)cc12 35.5 µM [activator, single point]
CC(C)(Oc1ccc(Cl)cc1)C(=O)N(Cc1ccccc1)c1ccccn1 6.31 µM [activator, single point]
Cc1cc(C)n2nc(C)c(-c3ccc(Cl)cc3)c2n1 11.2 µM [activator, partial curve]
CCCCC1=CC2=CC(=O)C(C)(OC(=O)CC)C(=O)C2=CN1c1ccccc1 (stereo not drawn) 14.1 µM [activator, partial curve]
Clc1ccc(N2CCN(c3ncnc4c3nc3n4CCCC3)CC2)cc1 11.2 µM [activator, partial curve]
COC(=O)COc1ccc(C2Nc3c(Cl)ccc(C(=O)O)c3C3C=CCC32)cc1 (stereo not drawn) 17.8 µM [activator, single point]
c1ccc2c(c1)nnn2Cn1nnc2ccccc21 35.5 µM [activator, partial curve]
CC1CCc2sc3ncnc(N4CCOCC4)c3c2C1 (stereo not drawn) 31.6 µM [activator, single point]
O=C(N/N=C/c1cccs1)c1cc(-c2ccc3ccccc3c2)n[nH]1 3.55 µM [activator, partial curve]
COc1ccc(Cl)cc1NC(=O)CN(C)CC(=O)Nc1ccccc1-c1ccccc1 31.6 µM [activator, single point]
Cn1c(SCC(=O)N2CCCc3ccccc32)nc2ccccc2c1=O 17.8 µM [activator, single point]
CNC(=S)N/N=C/c1cn(CCOc2ccccc2OC)c2ccccc12 1.41 µM [activator, partial curve]
CCc1cccc(NC(=O)Cn2nc(-c3ccc(OC)cc3)ccc2=O)c1 22.4 µM [activator, single point]
Cc1ccc(Cl)cc1-c1cc(C(=O)Nc2ccc(F)cc2)[nH]n1 0.316 µM [activator, full curve]
C[C@H]1CCCCO[C@H](CN(C)C(=O)Nc2ccc(F)cc2)[C@@H](C)CN([C@@H](C)CO)C(=O)c2cc(NC(=O)Nc3ccc4c(c3)OCO4)ccc2O1 1.78 µM [activator, partial curve]
Cc1cccc(NC(=O)c2nc[nH]c2C(=O)NCCN(CCNC(=O)c2[nH]cnc2C(=O)Nc2cccc(C)c2)CCNC(=O)c2[nH]cnc2C(=O)Nc2cccc(C)c2)c1 35.5 µM [activator, partial curve]

Potency, active:
COc1ccc(OC(=O)c2c(C)nn(-c3ccccc3)c2C)cc1 22.4 µM
C=CCN1C(=O)/C(=C/c2ccc(O)c(OC)c2)S/C1=N/c1nccs1 22.4 µM
N/C(=N\OC(=O)CC1CCCCC1)c1ccc([N+](=O)[O-])cc1 17.8 µM
CCN1C(=O)[C@H]2[C@@H](c3ccc(-c4ccc(C(C)=O)cc4)c(OC)c3)N3CCCC[C@@]3(C(=O)OC)[C@H]2C1=O 14.1 µM
Cc1ccc(Cc2c(-c3ccc(Cl)cc3)nc3ccc(Cl)cn23)cc1 35.5 µM
Cc1cccc(NC(=O)C2C(c3ccccc3)C2(Cl)Cl)c1 (stereo not drawn) 22.4 µM
O=S(=O)(Nc1cccc2c1CCCC2)c1cccc(C(F)(F)F)c1 25.1 µM
N#CCSc1nnc(COc2cccc3ccccc23)n1-c1ccccc1 20 µM
COc1ccc(C(=O)/C=C/C(=O)N(CC(=O)NC2CCCCC2)Cc2cccs2)c(O)c1 20 µM

Potency, inactive:
COc1ccc2[nH]c(=O)c(CN(CCc3ccccc3)Cc3nnnn3CC3CCCO3)cc2c1 (stereo not drawn)
CCN(C(=O)CN1CCCCC1)C1(C)C(=O)c2ccccc2C1=O
Nc1c(C(=O)NCCN2CCOCC2)c2nc3ccccc3nc2n1-c1cccc(F)c1
CC(C)OC(=O)CCNc1n[nH]c(=O)[nH]c1=O
COc1ccc(NC(=O)C2Cc3c(-c4cccc(NC(C)=O)c4)ccnc3O2)cc1OC (stereo not drawn)
Cc1ccc(SCC(=O)Nc2ccc(-c3nc4ccccc4[nH]3)cc2)cc1
CCC(=O)N1CCc2cc(S(=O)(=O)NC(C(=O)Nc3ccc(C(C)=O)cc3)C(C)C)ccc21 (stereo not drawn)
COCCCNC(=O)c1ccc2c(c1)ncn2-c1ccccc1OC
O=C(O)c1cc(O)ccc1O
CN(CC(=O)Nc1ccccc1Cl)C(=O)c1cc(C2CC2)nn1-c1ccccc1
COc1cc2c(cc1OC)CN(C(=O)/C=C/c1ccc([N+](=O)[O-])cc1)CC2
N=c1c2c(ncn1Cc1ccco1)Oc1cc(O)ccc1C2c1ccccc1 (stereo not drawn)
CCc1ccc(CNC(=O)c2cnc3sc4cc(OC)ccc4n3c2=O)cc1

Growth rescue (activation), inconclusive:
Cc1ccc2c(c1)c1ccc3c(c1n2C)C(=O)C=CC3=O -63.1% [activator]

Growth rescue (activation), inactive:
COc1ccc2c(c1)CC(C(=O)NCCCN1CCN(c3ccc(F)cc3)CC1)CO2 (stereo not drawn) 0% [at 9.22 µM]
